# Measurements taken from the supplement of paper PMC3724861.
# The list shows a part of the results.
# System: T1, Caupolican (Caup) homeodomain DNA-binding domain
# T1 sequence: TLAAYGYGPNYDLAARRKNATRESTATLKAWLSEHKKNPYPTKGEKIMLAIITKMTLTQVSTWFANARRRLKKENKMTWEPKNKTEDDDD
# Test: PBM E-score (8-mer, recovered from the published 9-mer minima) (E-score (dimensionless, -0.5 to 0.5)); Drosophila protein; higher = stronger relative binding preference, active = 0.31 or more
# Procedure: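 Protein binding microarray (PBM): in vitro transcribed/translated Caupolican (Caup) homeodomain DNA-binding domain (residues 214-303) applied at 100 nM to a universal 8-mer PBM array (Agilent AMADID 015681). The 8-mer enrichment score (E-score, range -0.5 to 0.5) was computed, and each 9-mer score is the minimum E-score of its two constituent 8-mers. The E-score is the same for a 9-mer and its reverse complement; 0.31 is the stated binding threshold.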
row,Sequence,PBM E-score
1,CTAAACTA,inactive: 0.11
2,CGGTTACA,inactive: 0.183
3,CGTGATAG,inactive: -0.0553
4,CATTACCC,inactive: -0.0413
5,CTCGGTCC,inactive: -0.164
6,CCAGACAC,inactive: 0.05
7,TCGAATAA,inactive: 0.0696
8,CGCCCAAG,inactive: -0.21
9,CCCGTTTC,inactive: -0.132
10,AGAAAGAG,inactive: -0.0152
11,GAACAGTC,inactive: 0.0395
12,ATCTTGGC,inactive: -0.0175
13,CAAACTAG,inactive: 0.116
14,ATGAACAT,active: 0.326
15,CAGGATAG,inactive: 0.0126
16,AGGTGCCC,inactive: -0.234
17,AGTGAAAG,inactive: -0.081
18,ATTCTCGC,inactive: -0.0319
19,CAAGGTCA,inactive: 0.00506
20,CCATGCCA,inactive: -0.0932
21,AAGTAATC,inactive: 0.231
22,GATACGTA,inactive: 0.0715
23,ATCTTTCC,inactive: -0.0323
24,ATGTGTGA,inactive: 0.134

row,Sequence,PBM E-score
1,GCTCGGGA,inactive: -0.244
2,CGGGAGAC,inactive: -0.117
3,AACATATC,inactive: 0.303
4,ATCCCGTG,inactive: 0.172
5,TCCAGGGA,≥ -0.0903
6,ACAGGGCG,inactive: -0.0411
7,CACACTCC,inactive: -0.0969
8,AAGGGCGA,inactive: -0.114
9,AGGAGCTG,inactive: -0.165
10,AGCACCCT,inactive: -0.0748
11,GTTATGTA,inactive: 0.276
12,ACTCAGGC,inactive: -0.105
13,CCTGTCAA,inactive: 0.172
14,CTGAATGC,inactive: -0.146
15,AGCGCCAG,≥ -0.147
16,GGCATGGA,inactive: -0.0635
17,ATCCATTG,inactive: 0.0117
18,AACCTCGA,inactive: -0.0635
19,CTAAGAGC,inactive: -0.16
20,AGCAAGCT,inactive: -0.0378
21,AATCAACC,inactive: -0.0152
22,AGAAGTGC,inactive: -0.107
23,AAAAGTAT,inactive: 0.121
24,AAGGAACC,inactive: -0.00983

row,Sequence,PBM E-score
1,ACGGCGTA,≥ 0.0143
2,GTGTTCTA,inactive: 0.206
3,ATTTGAGA,inactive: 0.048
4,CGAATCAC,inactive: 0.00894
5,TAATGGAA,inactive: 0.0857
6,AAAATACC,inactive: 0.0751
7,AAGACCCC,≥ -0.0916
8,ACGCTGAG,inactive: -0.175
9,ACTCACCA,inactive: 0.0217
10,CGATCCAG,inactive: -0.13
11,GTTCGGCA,inactive: 0.012
12,TAGACTGA,inactive: -0.0421
13,CTTCTAAA,inactive: 0.0632
14,ACGATGAT,inactive: 0.0637
15,AGGTGGAT,inactive: -0.0673
16,CTTTTCTA,inactive: -0.0577
17,ATCAGTTA,inactive: 0.151
18,ATGAGGTA,inactive: 0.114
19,AAGCGGAT,inactive: -0.113
20,AAGACGTA,inactive: 0.0818
21,GACTAAGA,inactive: -0.0118
22,CTAAATTC,inactive: 0.0449
23,CGGTTCAC,inactive: -0.149
24,AACGTTAG,inactive: -0.0541

row,Sequence,PBM E-score
1,GGGTACTA,inactive: 0.152
2,CACTCCTA,inactive: 0.0257
3,CGTGGCGA,inactive: -0.179
4,ATAAAAAA,inactive: 0.0277
5,TCCGCACA,inactive: -0.0736
6,TGACACCA,inactive: 0.223
7,ATTCCACG,inactive: -0.0818
8,GTGTCCTA,inactive: 0.208
9,GCGAAGAA,inactive: -0.0006
10,AGTGGCGA,inactive: -0.0893
11,GCAACATA,inactive: 0.204
12,CGGAAGCC,inactive: -0.211
13,GTGTCTGA,inactive: 0.144
14,AGTAGTGC,inactive: -0.0269
15,GCGGAGAC,inactive: -0.0671
16,AGCGCGTG,inactive: -0.102
17,TCGGGTAA,inactive: 0.0595
18,CGGCCTGC,inactive: -0.262
19,GCCTAAAC,inactive: -0.036
20,GGCGGCAA,inactive: -0.216
21,ATGGCCGA,≥ -0.0603
22,CCAGCTGG,inactive: -0.11
23,TCACCGCA,inactive: -0.0227
24,CGTCATAG,inactive: -0.0339

row,Sequence,PBM E-score
1,GAACATAA,inactive: 0.282
2,GGGATGAC,inactive: -0.0792
3,AGGGCGAC,inactive: -0.13
4,AACCGCGA,inactive: 0.0077
5,CGTTCAGC,inactive: -0.0862
6,ACCGTCAA,inactive: -0.129
7,GAATACGC,inactive: -0.0247
8,ACTTCCGA,inactive: -0.0549
9,CCACCTCC,inactive: -0.168
10,AACTTGGA,inactive: 0.00535
11,AAGCCGAC,inactive: -0.0898
12,AGGCCCAC,inactive: -0.27
13,CAGGAAAA,inactive: 0.105
14,CGCGAGAA,inactive: -0.107
15,CTCGCCTA,inactive: -0.074
16,CACTGTCA,inactive: 0.139
17,ACAAAAAA,inactive: 0.199
18,AACTAGGG,inactive: -0.0781
19,TACCTAGA,inactive: 0.111
20,AAACAAAA,inactive: 0.189
21,CCCGCAAA,≥ -0.0153
22,AACAGATG,inactive: 0.151
23,TTCTTAAA,inactive: 0.0619
24,AGCCCTCG,inactive: -0.196

row,Sequence,PBM E-score
1,CAGTTAAA,inactive: 0.0971
2,AACCTAAG,inactive: -0.0153
3,GTCCATGA,inactive: 0.0658
4,GCGCGACC,inactive: -0.141
5,CAGAAGGA,inactive: -0.156
6,CCGTATGC,inactive: -0.225
7,CATGTGAG,inactive: 0.173
8,GCGATAAC,inactive: -0.00824
9,AAAAACCA,inactive: 0.137
10,GACGACGA,inactive: -0.0012
11,GGAAATCC,inactive: -0.0738
12,CGAACTAA,inactive: -0.0144
13,CGCCTGCA,inactive: -0.165
14,ACGGACTG,inactive: 0.0627
15,GGTATTAA,inactive: 0.0311
16,AGACTGAG,inactive: -0.112
17,CGGACCAC,inactive: -0.0715
18,AGGGGCAT,≥ -0.0561
19,AAAGTTAC,inactive: 0.196
20,AAAGACAT,inactive: 0.205
21,TACAAATA,≥ 0.277
22,AGCCCGCT,inactive: -0.225
23,ATACGTCG,inactive: 0.0317
